# Experimental data published in the supplement of paper PMC8728848.
# Some of the results follow.
# B1: SAG3 (Toxoplasma gondii), Q9BJ39 (protein)
# chain: MQLWRRRAAGPASLGRQSLPLGCFFAAFGLCVLSAILGTGERGLFVAAGNSRRKITYFGTLTQKAPNWYRCSSTRAKEEVVGHVTLNKEHPDMTIECVDDGLGGEFLPLEGARSSYPRVCHIDAKDQDDCERNRGFLTDYIPGAKQYWYKIEKVEQNGEQSVLYKFTVPWILLPPAKQRYKVGCRYPNHEYCFVEVTVEPTPPMVEGKRVTCGYSESGPVNLEVDLSKNANFIEIRCGEQHHPQPSTYTLQYCSGDSVDPQKCSPQSLTNIFYDYSSSWWKGKLNGPDGATLTIPPGGFPEEDKSFLVGCSLTVDGPPFCNVKVRVAGNPRKWERGGGGHPGSGGLQPGTDGETQAGTGSSAGASSRMASVALAFLLGLLVHVAA
# Assays:
# Experiment in all cases: glycan array binding signal (z-score within array); higher = stronger binding
# Settings in all cases: glycan notation: IUPAC condensed, linker removed
# [1] = target: Fuc(a1-3)[Gal3S(b1-4)]GlcNAc
# In short: (§1)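 Negative Z-scores can be read as non-binding. The Z-score is calculated within each array and then averaged across arrays of one protein sequence at different concentrations or buffers and across linkers. Arrays, 3228 in all, were curated from the Consortium for Functional Glycomics database and kept only where the protein sequence was available.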
# [2] = target: Fuc(a1-3)[Gal3S(b1-4)]GlcNAc6S
# In short: as §1
# [3] = target: Fuc(a1-3)[GalNAc(b1-4)]GlcNAc
# In short: as §1
# Fuc(a1-4)GlcNAc = target: Fuc(a1-4)GlcNAc
# In short: as §1
# Fuc(b1-3)GlcNAc = target: Fuc(b1-3)GlcNAc
# In short: as §1
# Gal(a1-2)Gal = target: Gal(a1-2)Gal
# In short: as §1
# Gal(a1-3)Gal = target: Gal(a1-3)Gal
# In short: as §1
# Gal(a1-3)Gal(b1-3)GlcNAc = target: Gal(a1-3)Gal(b1-3)GlcNAc
# In short: as §1
# [4] = target: Gal(a1-3)Gal(b1-3)GlcNAc(b1-2)Man(a1-3)[Gal(a1-3)Gal(b1-3)GlcNAc(b1-2)Man(a1-6)]Man(b1-4)GlcNAc(b1-4)GlcNAc
# In short: as §1
# [5] = target: Gal(a1-3)Gal(b1-3)[Fuc(a1-4)]GlcNAc(b1-2)Man(a1-3)[Gal(a1-3)Gal(b1-3)[Fuc(a1-4)]GlcNAc(b1-2)Man(a1-6)]Man(b1-4)GlcNAc(b1-4)GlcNAc
# In short: as §1
# Gal(a1-3)Gal(b1-4)Glc = target: Gal(a1-3)Gal(b1-4)Glc
# In short: as §1
# Gal(a1-3)Gal(b1-4)GlcNAc = target: Gal(a1-3)Gal(b1-4)GlcNAc
# In short: as §1
# [6] = target: Gal(a1-3)Gal(b1-4)GlcNAc(b1-3)GalNAc
# In short: as §1
# [7] = target: Gal(a1-3)Gal(b1-4)[Fuc(a1-3)]GlcNAc
# In short: as §1
# [8] = target: Gal(a1-3)Gal(b1-4)[Fuc(a1-3)]GlcNAc(b1-2)Man(a1-3)[Gal(a1-3)Gal(b1-4)[Fuc(a1-3)]GlcNAc(b1-2)Man(a1-6)]Man(b1-4)GlcNAc(b1-4)GlcNAc
# In short: as §1
# Gal(a1-3)GalNAc = target: Gal(a1-3)GalNAc
# In short: as §1
# [9] = target: Gal(a1-3)[Gal(a1-4)]Gal(b1-4)GlcNAc
# In short: as §1
# [10] = target: Gal(a1-4)Gal(b1-3)GlcNAc(b1-2)Man(a1-3)[Gal(a1-4)Gal(b1-3)GlcNAc(b1-2)Man(a1-6)]Man(b1-4)GlcNAc(b1-4)GlcNAc
# In short: as §1
# Gal(a1-4)Gal(b1-4)Glc = target: Gal(a1-4)Gal(b1-4)Glc
# In short: as §1
# Gal(a1-4)Gal(b1-4)GlcNAc = target: Gal(a1-4)Gal(b1-4)GlcNAc
# In short: as §1
# [11] = target: Gal(a1-4)Gal(b1-4)GlcNAc(b1-2)Man(a1-3)[Gal(a1-4)Gal(b1-4)GlcNAc(b1-2)Man(a1-6)]Man(b1-4)GlcNAc(b1-4)GlcNAc
# In short: as §1
# [12] = target: Gal(a1-4)Gal(b1-4)GlcNAc(b1-3)Gal(b1-4)Glc
# In short: as §1
# Gal(a1-4)GlcNAc = target: Gal(a1-4)GlcNAc
# In short: as §1
# Gal(a1-6)Glc = target: Gal(a1-6)Glc
# In short: as §1
# Gal(b1-2)Gal = target: Gal(b1-2)Gal
# In short: as §1
# Gal(b1-3)Gal = target: Gal(b1-3)Gal
# In short: as §1
# Gal(b1-3)Gal(b1-4)GlcNAc = target: Gal(b1-3)Gal(b1-4)GlcNAc
# In short: as §1
# [13] = target: Gal(b1-3)Gal(b1-4)GlcNAc(b1-2)Man(a1-3)[Gal(b1-3)Gal(b1-4)GlcNAc(b1-2)Man(a1-6)]Man(b1-4)GlcNAc(b1-4)GlcNAc
# In short: as §1
# Gal(b1-3)GalNAc = target: Gal(b1-3)GalNAc
# In short: as §1
# [14] = target: Gal(b1-3)GalNAc(a1-3)[Fuc(a1-2)]Gal(b1-4)Glc
# In short: as §1
# [15] = target: Gal(b1-3)GalNAc(a1-3)[Fuc(a1-2)]Gal(b1-4)GlcNAc
# In short: as §1
# [16] = target: Gal(b1-3)GalNAc(b1-3)Gal(a1-4)Gal(b1-4)Glc
# In short: as §1
# [17] = target: Gal(b1-3)GalNAc(b1-4)Gal(b1-4)Glc
# In short: as §1
# [18] = target: Gal(b1-3)GalNAc(b1-4)[Neu5Ac(a2-3)]Gal(b1-4)Glc
# In short: as §1
# Gal(b1-3)GlcNAc = target: Gal(b1-3)GlcNAc
# In short: as §1
# [19] = target: Gal(b1-3)GlcNAc(a1-6)Gal(b1-4)GlcNAc
# In short: as §1
# [20] = target: Gal(b1-3)GlcNAc(b1-2)Man(a1-3)[Gal(b1-3)GlcNAc(b1-2)Man(a1-6)]Man(b1-4)GlcNAc(b1-4)GlcNAc
# In short: as §1
# [21] = target: Gal(b1-3)GlcNAc(b1-2)Man(a1-3)[Gal(b1-3)GlcNAc(b1-2)Man(a1-6)]Man(b1-4)GlcNAc(b1-4)[Fuc(a1-6)]GlcNAc
# In short: as §1
# [22] = target: Gal(b1-3)GlcNAc(b1-3)Gal(b1-3)GlcNAc
# In short: as §1
# [23] = target: Gal(b1-3)GlcNAc(b1-3)Gal(b1-4)Glc
# In short: as §1
# [24] = target: Gal(b1-3)GlcNAc(b1-3)Gal(b1-4)GlcNAc
# In short: as §1
# [25] = target: Gal(b1-3)GlcNAc(b1-3)Gal(b1-4)GlcNAc(b1-6)[Gal(b1-3)GlcNAc(b1-3)]Gal(b1-4)Glc
# In short: as §1
# [26] = target: Gal(b1-3)GlcNAc(b1-3)Gal(b1-4)[Fuc(a1-3)]GlcNAc(b1-6)[Gal(b1-3)GlcNAc(b1-3)]Gal(b1-4)Glc
# In short: as §1
# [27] = target: Gal(b1-3)GlcNAc(b1-3)GalNAc
# In short: as §1
# [28] = target: Gal(b1-3)GlcNAc(b1-6)Gal(b1-4)GlcNAc
# In short: as §1
# [29] = target: Gal(b1-3)[Fuc(a1-4)]GlcNAc
# In short: as §1
# [30] = target: Gal(b1-3)[Fuc(a1-4)]GlcNAc(b1-2)Man(a1-3)[Gal(b1-3)[Fuc(a1-4)]GlcNAc(b1-2)Man(a1-6)]Man(b1-4)GlcNAc(b1-4)GlcNAc
# In short: as §1
# [31] = target: Gal(b1-3)[Fuc(a1-4)]GlcNAc(b1-2)Man(a1-3)[Gal(b1-3)[Fuc(a1-4)]GlcNAc(b1-2)Man(a1-6)]Man(b1-4)GlcNAc(b1-4)[Fuc(a1-6)]GlcNAc
# In short: as §1
# [32] = target: Gal(b1-3)[Fuc(a1-4)]GlcNAc(b1-3)Gal(b1-3)[Fuc(a1-4)]GlcNAc
# In short: as §1
# [33] = target: Gal(b1-3)[Fuc(a1-4)]GlcNAc(b1-3)Gal(b1-4)GlcNAc
# In short: as §1
# [34] = target: Gal(b1-3)[Fuc(a1-4)]GlcNAc(b1-3)Gal(b1-4)[Fuc(a1-3)]GlcNAc
# In short: as §1
# [35] = target: Gal(b1-3)[GlcNAc(b1-6)]GalNAc
# In short: as §1
# [36] = target: Gal(b1-3)[Neu5Ac(a2-6)]GalNAc
# In short: as §1
# [37] = target: Gal(b1-3)[Neu5Ac(a2-6)]GlcNAc(b1-6)Gal(b1-4)Glc
# In short: as §1
# [38] = target: Gal(b1-3)[Neu5Ac(b2-6)]GalNAc
# In short: as §1
# [39] = target: Gal(b1-4)GalNAc(a1-3)[Fuc(a1-2)]Gal(b1-4)GlcNAc
# In short: as §1
# [40] = target: Gal(b1-4)GalNAc(b1-3)[Fuc(a1-2)]Gal(b1-4)GlcNAc
# In short: as §1
# Gal(b1-4)Glc = target: Gal(b1-4)Glc
# In short: as §1
# Gal(b1-4)Glc6S = target: Gal(b1-4)Glc6S
# In short: as §1
# Gal(b1-4)GlcNAc = target: Gal(b1-4)GlcNAc
# In short: as §1
binder,measurement,setting,value
B1,glycan array binding signal (z-score),[1],-0.111
same,glycan array binding signal (z-score),[2],0.176
same,glycan array binding signal (z-score),[3],-0.554
same,glycan array binding signal (z-score),Fuc(a1-4)GlcNAc,-0.434
same,glycan array binding signal (z-score),Fuc(b1-3)GlcNAc,0.343
same,glycan array binding signal (z-score),Gal(a1-2)Gal,0.002
same,glycan array binding signal (z-score),Gal(a1-3)Gal,-0.317
same,glycan array binding signal (z-score),Gal(a1-3)Gal(b1-3)GlcNAc,-0.342
same,glycan array binding signal (z-score),[4],0.338
same,glycan array binding signal (z-score),[5],0.273
same,glycan array binding signal (z-score),Gal(a1-3)Gal(b1-4)Glc,-0.051
same,glycan array binding signal (z-score),Gal(a1-3)Gal(b1-4)GlcNAc,-0.223
same,glycan array binding signal (z-score),[6],-0.172
same,glycan array binding signal (z-score),[7],-0.307
same,glycan array binding signal (z-score),[8],4.74
same,glycan array binding signal (z-score),Gal(a1-3)GalNAc,-0.176
same,glycan array binding signal (z-score),[9],-0.284
same,glycan array binding signal (z-score),[10],-0.051
same,glycan array binding signal (z-score),Gal(a1-4)Gal(b1-4)Glc,-0.539
same,glycan array binding signal (z-score),Gal(a1-4)Gal(b1-4)GlcNAc,-0.01
same,glycan array binding signal (z-score),[11],-0.168
same,glycan array binding signal (z-score),[12],0.097
same,glycan array binding signal (z-score),Gal(a1-4)GlcNAc,-0.272
same,glycan array binding signal (z-score),Gal(a1-6)Glc,0.318
same,glycan array binding signal (z-score),Gal(b1-2)Gal,-0.633
same,glycan array binding signal (z-score),Gal(b1-3)Gal,-0.083
same,glycan array binding signal (z-score),Gal(b1-3)Gal(b1-4)GlcNAc,0.353
same,glycan array binding signal (z-score),[13],0.147
same,glycan array binding signal (z-score),Gal(b1-3)GalNAc,0.113
same,glycan array binding signal (z-score),[14],-0.32
same,glycan array binding signal (z-score),[15],-0.103
same,glycan array binding signal (z-score),[16],-0.315
same,glycan array binding signal (z-score),[17],0.085
same,glycan array binding signal (z-score),[18],-0.033
same,glycan array binding signal (z-score),Gal(b1-3)GlcNAc,0.181
same,glycan array binding signal (z-score),[19],-0.581
same,glycan array binding signal (z-score),[20],0.157
same,glycan array binding signal (z-score),[21],0.257
same,glycan array binding signal (z-score),[22],-0.023
same,glycan array binding signal (z-score),[23],0.063
same,glycan array binding signal (z-score),[24],0.141
same,glycan array binding signal (z-score),[25],0.551
same,glycan array binding signal (z-score),[26],0.016
same,glycan array binding signal (z-score),[27],0.363
same,glycan array binding signal (z-score),[28],-0.244
same,glycan array binding signal (z-score),[29],0.01
same,glycan array binding signal (z-score),[30],0.126
same,glycan array binding signal (z-score),[31],-0.533
same,glycan array binding signal (z-score),[32],-0.41
same,glycan array binding signal (z-score),[33],-0.077
same,glycan array binding signal (z-score),[34],-0.061
same,glycan array binding signal (z-score),[35],-0.291
same,glycan array binding signal (z-score),[36],-0.491
same,glycan array binding signal (z-score),[37],-0.087
same,glycan array binding signal (z-score),[38],0.318
same,glycan array binding signal (z-score),[39],-0.228
same,glycan array binding signal (z-score),[40],0.211
same,glycan array binding signal (z-score),Gal(b1-4)Glc,-0.44
same,glycan array binding signal (z-score),Gal(b1-4)Glc6S,-0.304
same,glycan array binding signal (z-score),Gal(b1-4)GlcNAc,-0.501
